Results on 23 compounds are retold here after US8975247B2, “Methods and compositions of treating a flaviviridae family viral infection” (priority 2009, dated 2015).

The subject of data set [1] is Huh7.5 cells. It is filed as cell-based.
Data set [2] has as its system HCV genotype 2a infectious clone. As to the kind of experiment: HCV genotype 2a infectious clone assay (Renilla luciferase). It is filed as cell-based. Particulars: Hepatitis C virus, read-out: 2a % activity @ 5 μM, % replication activity of control remaining at 5 μM test compound.

Read-outs that look alike come from different tables or passages of the source.

As for `Cc1ccc(Cn2c(CN3CCCC3)nc3ccccc32)cc1` [EBP197], in data set [1] (human, 3 days, 5 μM), the “2a Cell Viability @ 5 μM” value stood at 96%. The “2a Cell Viability @ 10 μM” value in data set [1] (human, 3 days, 10 μM) is reported as 95%. Further, the activity at 5 µM in data set [2] was 60%.

For the compound `Clc1ccc(Cn2c(CN3CC=CC3)nc3ccccc32)cc1` [EBP409], in data set [1] (human, 3 days, 5 μM), the “2a Cell Viability @ 5 μM” value is 100%. The “2a Cell Viability @ 10 μM” value in data set [1] (human, 3 days, 10 μM) was found to be 98%. In data set [2], the activity at 5 µM was 80%.

For the compound `c1ccc2c(c1)nc(CN1CCCC1)n2CC1CCNCC1` [EBP193], in data set [1] (human, 3 days, 5 μM), the “2a Cell Viability @ 5 μM” value was >100, >100%. For the same compound, the “2a Cell Viability @ 10 μM” value in data set [1] (human, 3 days, 10 μM) is listed as >100, >100%. Further, in data set [2], the activity at 5 µM was determined as 77%.

On to `COc1ccc(Cn2c(C)nc3c(NS(=O)(=O)c4ccc(F)cc4)c(C)c(C)cc32)cc1` [EBP132], for which the “2a Cell Viability @ 5 μM” value in data set [1] (human, 3 days, 5 μM) stood at 93%. For the same compound, the “2a Cell Viability @ 10 μM” value in data set [1] (human, 3 days, 10 μM) was found to be 79%. Moreover, in data set [2], the activity at 5 µM is 70%.

Turning to `Cc1ccc2c(c1)nc(CN1CCCCC1)n2Cc1ccc(Cl)cc1` [EBP314], in data set [1] (human, 3 days, 5 μM), the “2a Cell Viability @ 5 μM” value is listed as 97%. In addition, the “2a Cell Viability @ 10 μM” value in data set [1] (human, 3 days, 10 μM) turned out to be 84%. In addition, in data set [2], the activity at 5 µM came out at 67%.

As to `Cc1cccc(Cn2cnc3c(NS(=O)(=O)C(F)(F)F)c(C)c(C)cc32)c1` [EBP170], the “2a Cell Viability @ 5 μM” value in data set [1] (human, 3 days, 5 μM) came out at 94%. For the same compound, the “2a Cell Viability @ 10 μM” value in data set [1] (human, 3 days, 10 μM) worked out at 97%. Further, the activity at 5 µM in data set [2] stood at 33%.

On to `Cc1cc2ncn(Cc3ccc(Cl)cc3)c2cc1C` [EBP268], for which the “2a Cell Viability @ 5 μM” value in data set [1] (human, 3 days, 5 μM) amounted to 86%. Also, in data set [1] (human, 3 days, 10 μM), the “2a Cell Viability @ 10 μM” value worked out at 74%. In data set [2], the activity at 5 µM amounted to 66%.

As to `Cc1ccc2nc(CN3CCCCC3)n(Cc3ccc(Cl)cc3)c2c1` [EBP428], the “2a Cell Viability @ 5 μM” value in data set [1] (human, 3 days, 5 μM) is reported as 100, 100%. Also, the “2a Cell Viability @ 10 μM” value in data set [1] (human, 3 days, 10 μM) is listed as 100, 100%. In addition, the activity at 5 µM in data set [2] worked out at 65%.

For the compound `Cc1cc2nc(C=C3CCNCC3)n(Cc3ccc(Cl)cc3)c2cc1C` [EBP422], the “2a Cell Viability @ 5 μM” value in data set [1] (human, 3 days, 5 μM) is listed as 89%. In addition, in data set [1] (human, 3 days, 10 μM), the “2a Cell Viability @ 10 μM” value was determined as 80%. In addition, in data set [2], the activity at 5 µM is 78%.

Take `CCNc1c(C)c(C)cc2c1ncn2Cc1ccc(OC)cc1` [EBP306]: the “2a Cell Viability @ 3 uM” value in data set [1] (human, 3 days, 3 uM) is > 100%. In addition, the “2a Cell Viability @ 6 uM” value in data set [1] (human, 3 days, 6 uM) is recorded as 93%. Also, the activity at 5 µM in data set [2] turned out to be 71%.

Turning to `COc1ccc(Cn2cnc3c(NCC(C)C)c(C)c(C)cc32)cc1` [EBP308], in data set [1] (human, 3 days, 5 μM), the “2a Cell Viability @ 5 μM” value is reported as 93%. For the same compound, in data set [1] (human, 3 days, 10 μM), the “2a Cell Viability @ 10 μM” value is 82%. Besides, in data set [2], the activity at 5 µM is 45%.

As for `Cc1cc2nc(/C=C/C(C)C)n(Cc3ccc(Cl)cc3)c2cc1C` [EBP322], the “2a Cell Viability @ 5 μM” value in data set [1] (human, 3 days, 5 μM) was > 100%. The “2a Cell Viability @ 10 μM” value in data set [1] (human, 3 days, 10 μM) was determined as 95%. Also, the activity at 5 µM in data set [2] was found to be 74%.

Regarding `CS(=O)(=O)c1ccc2c(c1)nc(C(F)(F)F)n2Cc1ccccc1` [EBP108], in data set [1] (% cell survival at 5 μM), the “2a Cell Viability @ 5 μM” value is recorded as 100%. For the same compound, the “2a Cell Viability @ 10 μM” value in data set [1] (% cell survival at 10 μM) worked out at 96%. In data set [2], the activity at 5 µM came to 61%.

Turning to `Cc1cc2nc(CCc3cccnc3)n(Cc3ccc(Cl)cc3)c2cc1C` [EBP416], the “2a Cell Viability @ 5 μM” value in data set [1] (human, 3 days, 5 μM) is 100%. Further, the “2a Cell Viability @ 10 μM” value in data set [1] (human, 3 days, 10 μM) came out at 91%. In data set [2], the activity at 5 µM amounted to 53%.

As to `COc1ccc2c(c1)ncn2Cc1ccc(Cl)cc1` [EBP209], in data set [1] (human, 3 days, 5 μM), the “2a Cell Viability @ 5 μM” value is on record as > 100%. In data set [1] (human, 3 days, 10 μM), the “2a Cell Viability @ 10 μM” value amounted to 85%. In addition, the activity at 5 µM in data set [2] stood at 64%.

Regarding `Cc1cc2nc(CN3C[C@@H](O)[C@@H](O)C3)n(Cc3ccc(Cl)cc3)c2cc1C` [EBP411], the “2a Cell Viability @ 5 μM” value in data set [1] (human, 3 days, 5 μM) amounted to 93%. Moreover, in data set [1] (human, 3 days, 10 μM), the “2a Cell Viability @ 10 μM” value is given as 99%. Further, in data set [2], the activity at 5 µM stood at 68%.

In the case of `CC(C)(C)C(=O)NCc1nc2ccccc2[nH]1` [EBP012], the “2a Cell Viability @ 5 μM” value in data set [1] (human, 3 days, 5 μM) is > 100%. Moreover, the “2a Cell Viability @ 10 μM” value in data set [1] (human, 3 days, 10 μM) is 93%. Moreover, the activity at 5 µM in data set [2] worked out at 73%.

Take `Cc1cc2ncn(Cc3cc(Cl)cc4c3OCCO4)c2cc1C` [EBP113]: in data set [1] (human, 3 days, 5 μM), the “2a Cell Viability @ 5 μM” value was determined as 92%. Also, the “2a Cell Viability @ 10 μM” value in data set [1] (human, 3 days, 10 μM) was found to be 90%. The activity at 5 µM in data set [2] stood at 68%.

Consider `Cc1cc2c(ncn2Cc2ccccc2)c(N)c1C` [EBP102], for which the “2a Cell Viability @ 5 μM” value in data set [1] (human, 3 days, 5 μM) is 100, 100%. For the same compound, the “2a Cell Viability @ 10 μM” value in data set [1] (human, 3 days, 10 μM) is 100, 100%. Besides, the activity at 5 µM in data set [2] was determined as 80%.

In the case of `COC(=O)c1ccc(Cn2c(CN3CCCC3)nc3ccccc32)cc1` [EBP152], the “2a Cell Viability @ 5 μM” value in data set [1] (human, 3 days, 5 μM) is reported as >100, >100%. Also, in data set [1] (human, 3 days, 10 μM), the “2a Cell Viability @ 10 μM” value was >100, >100%. Besides, the activity at 5 µM in data set [2] was 77%.

For `COCC1CCCN1Cc1nc2c(C)c(C)ccc2n1Cc1ccc(Cl)cc1` (stereo not drawn) [EBP186], the “2a Cell Viability @ 5 μM” value in data set [1] (human, 3 days, 5 μM) is > 100%. In data set [1] (human, 3 days, 10 μM), the “2a Cell Viability @ 10 μM” value is 99%. Also, the activity at 5 µM in data set [2] was 80%.

With `COc1ccc2nc(CN3CCC[C@H]3C)n(Cc3ccc(Cl)cc3)c2c1` [EBP489], in data set [1] (human, 3 days, 5 μM), the “2a Cell Viability @ 5 μM” value turned out to be 100%. Further, the “2a Cell Viability @ 10 μM” value in data set [1] (human, 3 days, 10 μM) amounted to 97%. Further, the activity at 5 µM in data set [2] was 73%.

Regarding `Cc1cc2nc(CN3CCCC3=O)n(Cc3ccc(Cl)cc3)c2cc1C` [EBP216], the “2a Cell Viability @ 5 μM” value in data set [1] (human, 3 days, 5 μM) is reported as 97%. Besides, in data set [1] (human, 3 days, 10 μM), the “2a Cell Viability @ 10 μM” value is given as 95%. In addition, in data set [2], the activity at 5 µM was 77%.
